Measurements taken from the supplement of paper PMC10126150.
Values marked as one replicate rest on one cluster of the flow cell; about a third of the high ones do not repeat.

Test system: ATP
Assay: switch fluorescence ratio, 500 uM ATP over buffer (Cy3 cluster intensity, sum of 5 cycles each) (fold (ratio)); higher = stronger signal-on switching upon ATP binding; sequences stand for … in TCGTCGGCAGCGTCAGATGTGTATAAGAGACAGTTTTTTTTTTTTTTTTTTTTTTTTT…TC
Conditions: aptamer strand: ATP DNA aptamer (quencher-CACCTGGGGGAGTATTGCGGAGGAAGG + anchor), 100 nM annealed; ATP concentration: 500 uM; one replicate
Procedure, shortened: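 For every switch-domain sequence, the fluorescence ratio is the mean of per-cluster values, each being summed target-cycle Cy3 intensity over summed buffer-cycle Cy3 intensity. Clusters outside 100-1000 RFU were excluded. On a modified Illumina MiSeq flow-cell, the Cy3-labelled switching-strand clusters were annealed to 100 nM quencher-labelled ATP aptamer, imaged in selection buffer and then after 15 min with 500 uM ATP at 22 °C. Five such cycles were run, with NaOH stripping and re-annealing between them.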
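Also: ATP exposure 15 min at 22 °C before imaging.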

Sequence	switch fluorescence ratio
ATAGTAATT	1.03
TGGATTGTAG	1.02
AAAGGCCTGC	0.997
GGGGTCCGCC	1.16
GTTGTACGCG	1.02
AAGAAGACCG	0.97
AGCACCAGAT	0.982
CCTTTAGGTA	1.04
GTATTGTGCT	0.939
ATTAGTCCG	1.04
GCGAGGCAGG	1.01
GCTAGGGAGT	1.01
ATTTTCGAAG	1.01
ATAGAAAAGG	1.02
TGCCATTCGT	1
GTCAGTCATT	0.981
GGCTATGGGA	1.01
CAGGGTGAA	1.02
TCAGTGAAG	0.977
GCCCTTGGTC	1
CGATGTTCG	1.03
GACGGGTCAA	0.984
AGACTGTTTG	1.01
GCTCGAGGGG	0.93
AAATAATTGA	0.994
ATTGTCTCTC	1.04

Sequence	switch fluorescence ratio
GTTGCTAAAG	0.961
AGTTGGGAAG	1
GAGTTTGTAC	1
TAGGGGGCCT	1.06
TTTTTCGC	1.03
TTGGTAGGTA	0.997
ATGTCGGGA	0.995
AGTAGGATCA	0.979
GATGCAGGGT	1.01
ACGGCCTCTA	1.02
GTTAGTATAC	0.998
AAGAGCGCAG	1.03
GAAAATTTTC	1.01
GGAATCTGTG	1.01
ACTTAACGG	1.25
TGTTCTTTCG	1
GGATGGTTG	0.952
GGCGGCCATC	1.01
ACATCGCTGT	1.1
CGTTTATAAG	0.969
CAGGCGATGC	1.28
TCCGTTTGGT	1.01
TCCTGGATTT	0.971
TGGCCGAAGG	1.2
GGTTCAGAAT	1.04
CTTTAATAGA	1.01

Sequence	switch fluorescence ratio
ACGGTGGATT	0.993
GTTTCTGGGC	1.02
ATAGGAGGAG	0.974
TAATGTCAG	0.964
ACGCCGGGAT	0.998
GACGTGCGGA	1
CAAGCAGC	1.05
AGTTTTTGGA	0.996
CACAGGTTCG	1.04
TAGCAAGAGG	1.42
CCGCTCTCGC	2.66
TTTAGCATGA	1.08
CTTGACGGGC	0.972
CGCGTGCTCC	2.18
GGGAGGTTAC	1.03
ACGCAGGCAA	2.25
TGGTCTACGG	1.02
CGTCTGGATT	1.12
TGGTAGATCG	1.04
GGCTATGGA	0.995
TAAAGAGGAT	1.01
CACACATTCC	1.99
GTCGTGATTA	0.97
CAAAAGGGTA	1.01
TATATCAGTG	0.996
CGTTTAGATT	0.977

Sequence	switch fluorescence ratio
AGGGCGTGAA	1.02
GACTAGGTAT	0.999
GGTTCAGTAT	1.01
CTAACCTGAG	1.83
ACTACAGGG	1.09
TGTCTTTTGC	0.985
GTGCCGAGGG	1.01
TAAGCTGAGC	1.02
GACCCCCCAT	1.33
AAGAAAGAAA	0.981
TCACTTTAAG	1.01
CATTTGACTT	1.02
TAAGAACAGG	1.04
TTTCGCAATA	1.62
AGCATGTAT	1.02
GCGACATTTG	1.01
GAGGTGCAGA	0.966
ATCATACCGT	1.02
CAGGCCTAAA	0.96
GAAGGGGAGT	0.994
TCCATTTAGT	1
ATGTAATAAC	1.01
CATCCAGTGG	1.08
AAGGGGCGTC	1.04
TGGTGGGAAC	0.957
CACGCTACAT	1.43

Sequence	switch fluorescence ratio
AAACTCGGGA	1.01
GCCGGCGCGA	1.06
TTTCAAAACC	1.28
CATGTAGCAG	1.07
GGATACCGTG	1.01
GTGGTACAGT	1
TGAGATGAAC	1
ACGCTGAATA	1.21
AGCAGGAGCA	1
GCATGCAGAA	1.01
ATCGTTGTAA	0.989
GGTAACCTTC	2.4
ATGGCGATAG	1.02
CGTTAATAGA	1.03
GGCAGGAAAT	0.99
CAGAAAGACG	0.964
CAAGAGTTG	1.01
TAAGCCTTCC	2.55
AAAGGGCTAA	0.986
GTTAAATTAA	2.29
CCACTGCTGT	1.43
ATTAGTCACG	1.04
TGGATGGTTT	1.01
TAATTACTGG	1.01
TCCATTATTT	1.02
GATTCCGAAG	2.1

Sequence	switch fluorescence ratio
ATAAGGACGC	1.07
GGAAAAGTCG	0.941
TCAGAGGAGG	1.06
GGGATGTATG	1.01
CGCACGATCT	1.07
ATTCTCAAAA	0.971
GGTGTTCGAA	0.97
GATCCGGGCC	1.01
ATTTGCCTAC	1.07
TCCGGACTGA	1.1
CGCAGTACCA	1.84
GGTCAGGGCC	1.03
GCTTAGTCGT	0.983
TATCGTGAGA	0.996
ATACATGGGG	1.02
CAGCTCGTGT	0.972
CAGCGGAACA	1.04
AGTTCGACCC	1.04
TCTACAAGGC	1.07
GCACTTCGTT	1
GTTTTACATC	1.01
AGGCCTGGAT	1.02
AGCCGATGTG	1.02
CGGTAGGAG	1.01
GATGACCGGG	1.01
TGCGTACGAT	1.02

Sequence	switch fluorescence ratio
ACGGCATACC	1.31
ATTAGATTCG	1
TAGAACTGCC	1.18
GCTTCGGGAG	1.08
TCGGTGCAGG	0.968
ATCCAAGCAG	1.19
TCGTAAAAAC	1.05
CTTGAAGGTC	0.997
GCGCCTAGAT	1
GGCGCCTGTA	1.05
ATTGAGGAGC	1.06
AACCAACTA	1.03
CATGGCTCTT	0.959
CTGGGACGAG	0.997
GGATCTACTC	1.06
TTCCAGTTAG	1.03
GATTTAACTT	0.967
CTGTTATCGG	0.997
AACGAAATAA	1.14
GGTCGAAGAA	0.998
GGAAACAAAG	0.996
ATCCCTCGGG	1.1
TGAGTGTTGG	1.01
AAGTTCAGGT	1.04
TTAGGAATGA	0.974
ATAGTCGCAC	1.03

Sequence	switch fluorescence ratio
CTTGCATGGT	1.02
CAACAACGGC	0.857
ATCAGGTCC	1.03
CGGCTCGTTA	1.02
ATTGTCTCTT	1.02
ATGAGGAGCC	0.986
TGATTTGGTG	1.03
TAAGAGTTT	1
TGGTTATATA	1.04
ATGAAGCACG	1.08
ACAGCTGGCA	0.968
TTTAGAATGG	0.975
AGCTTGGCCG	1.11
ACTGAGATAG	1.02
TGGCGGGGAT	1.04
AGGTTTGTC	1.05
TCGACAGAG	0.956
TAGCACACGG	1.12
GGGTAAGTCG	0.998
